Test results published in the supplement of paper PMC11417369.
± gives the standard deviation of the averaged measurements. The list shows a part of the results.

Test system: PfAP2-I AP2 domain 3 (GST-tagged)
Experiment: gcPBM binding intensity (ln(normalized median fluorescence intensity)); higher = stronger DNA binding
How it was run: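 Probes on an Agilent 4 × 180k array were primer-extended, double-stranded and 36 bp long, taken from intergenic genomic regions, with negative controls added. GST-tagged P. falciparum DNA-binding domains from E. coli, about 25 μg on average, were applied to the array for 1 h in 1× PBS containing 1% milk, 0.2 mg/ml BSA, 0.5% salmon testes DNA and 0.03% Triton X-100. Binding intensity, obtained after Alexa488 anti-GST antibody detection and a 488 nm scan, is the highest Masliner-normalised natural-log median intensity across replicate spots of either probe orientation.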

Row | Sequence | gcPBM binding intensity (ln)
1 | TATATTCTTTTAAACAGTACACACACACATATATAT [XGTACX_site1701] | 8.3 ± 0.53
2 | AAAAAAATTAAAAATAAAGAAAAAAAAAAAAAAAAA [GTGCAC_negctrl_site401] | 8.02 ± 0.99
3 | ATCATGAAATATATTTGTACACATAATAATATAATA [XGTACX_site8798] | 7.92 ± 0.23
4 | ATTTGGCAGAAACACACACACACACCCACCCACATA [CACACA_site589] | 8.29 ± 0.52
5 | TTTTTTTTTATAAATACACACGTACGGGTGCATAAC [CACACA_site8444] | 10.9 ± 0.73
6 | TATTAAAAGGTGAGTACACACATATATGTGTATATA [CACACA_site7070] | 7.88 ± 0.099
7 | ATATATATATATATATGTACACAGGACAATAATCCT [XGTACX_site6383] | 9.42 ± 0.35
8 | TAAAAAAATTCATGCACACGAAATAAAAAGCACCTT [CACACA_site4667] | 10.035 ± 0.007
9 | TTTTTTAAAAGATAATATTTTATTAATGTATTCTCA [GTGCAC_negctrl_site598] | 7.2 ± 0.55
10 | AAACATAAATTTTATTGTACATTATATAGAATTTTC [XGTACX_site576] | 7.49 ± 0.43
11 | TTTTCATTTTTTCGTTGTACATAAATAATATATATT [XGTACX_site856] | 8.21 ± 0.59
12 | AATACATACATACATACACACATATATATATATTAT [CACACA_site3575] | 7.99 ± 0.66
13 | TTTTACTATACTTATGCACACAAGATATATACATAT [CACACA_site2968] | 9.31 ± 0.13
14 | CACATGTATTTATAGGTGCGTAAAAACACTTTATAT [GTGCAC_site9501] | 10.2 ± 0.23
15 | ACTAATTACTATAAAACACACATATATTTATTTATA [CACACA_site7263] | 8.03 ± 0.52
16 | TTATAGAAACATTGGTGTACGATATTTACTTCTTTC [XGTACX_site7314] | 7.69 ± 0.49
17 | GGAATAGTCGGGTGCATACACACCTTAAATATAATA [CACACA_site1081] | 10.4 ± 0.54
18 | AAAGAAAATTCAATAGTGCATAAAAATATATATGTT [GTGCAC_site9680] | 10.7 ± 0.44
19 | ACAGATGATCAAAATTGTACAGAGTTATATTATATT [XGTACX_site4642] | 7.57 ± 0.52
20 | TTATTTAAAAATAGCACACATTATATATATATATAT [CACACA_site5556] | 9.15 ± 0.2
21 | CTTATACAAAAAAAAAGTACATAACATAATAAGAAT [XGTACX_site6782] | 8.15 ± 0.43
22 | GATAAACCATATATAACACACATATGAATATTGCAA [CACACA_site6735] | 8.03 ± 0.52

Row | Sequence | gcPBM binding intensity (ln)
23 | ATATCATATATAAGTCGTACGATGAATAGAATTTTT [XGTACX_site7586] | 7.74 ± 0.65
24 | CACCCATACAGACATACACACACATATATATTAATA [CACACA_site8077] | 8.12 ± 0.5
25 | ATACACTAGAAAATTTTATAGTATTATTAATGTTAA [GTGCAC_negctrl_site101] | 7.5 ± 0.54
26 | TTTTTATTCGTTAAATGTACAAAAAAAATGTTATAT [XGTACX_site2804] | 7.92 ± 0.39
27 | GCTTAGTTATATAACTGTACTATTTTTATTTATATG [XGTACX_site884] | 8 ± 0.4
28 | AATAAGATAAGGAAAAGTACTTATAATTAAACTAAT [XGTACX_site1850] | 8.41 ± 0.65
29 | CTCATAGTTGGGTGCACACAAAAAATTAAAAAAATA [CACACA_site3032] | 11.1 ± 0.81
30 | AAATATAAGTAAATAAATAAATATATAAATATATAA [TGCATGCA_negctrl_site441] | 7.13 ± 0.45
31 | AAATACATACATTAATGTACAAATAGAAACACTCTT [XGTACX_site1512] | 7.63 ± 0.59
32 | ATAAAGTAAGAAGAAATAATGATTTTCATGGAAAAC [XGTACX_negctrl_site322] | 7.58 ± 0.87
33 | TATCATCTTAATATCGTGCACATTTATAGAACGAAA [GTGCAC_site9992] | 11 ± 0.12
34 | ATACCTCAAATTGATACACACAAAAAAAGTAAATTA [CACACA_site3134] | 7.71 ± 0.42
35 | TTTTACTATACTTATGCACACAAGATAAATACATAT [CACACA_site5619] | 9.57 ± 0.057
36 | CTATTTTAATATTTTACACACCATGTAAAATATATA [CACACA_site5732] | 7.97 ± 0.28
37 | TATTTTTTTTCGTAATGTACATAAAAAATGCAAAAA [XGTACX_site8491] | 8.36 ± 0.057
38 | TATATATATATAACAACACACACAGATCATAAAACT [CACACA_site8670] | 9.38 ± 0.43
39 | ATTATATAATTTAATCGTACACAAATATTTGTTAGT [XGTACX_site5913] | 7.86 ± 0.38
40 | TATTATTCCATGTGAAGTACAGAAATATAAATAAAT [XGTACX_site5106] | 7.93 ± 0.4
41 | CTTTTAAAAAAATTCATGCACACGAAATAAAAAGCA [CACACA_site929] | 8.61 ± 0.67
42 | CCATAATTATATGCCAGTACATATTTGTAACAAAAA [XGTACX_site851] | 7.9 ± 0.4
43 | TTTATTTTTCATTGGGGTACACAAGTTTATTTTATT [XGTACX_site4263] | 8.36 ± 0.39
44 | TAAGTAATAGTTTGTGCACACTCAAGTATATCATAT [CACACA_site4035] | 10.8 ± 0.28

Row | Sequence | gcPBM binding intensity (ln)
45 | CAAAATATTTTTATAACACACATATATAGAATGTGC [CACACA_site1145] | 7.65 ± 0.44
46 | CATCCACATAGATGTACACACATATATATATATATA [CACACA_site5616] | 9.46 ± 0.66
47 | ATATGTATATTTTTGATGTGCTTTTATTTGGTTATT [CACACA_negctrl_site626] | 8.1 ± 0.41
48 | AAAAAAAATACATACACACACACACGCACATATATA [CACACA_site7645] | 8.03 ± 0.38
49 | ATTTTTTTATAATCAACCCATTTCCTACATTTTTAT [CACACA_negctrl_site1237] | 7.9 ± 0.75
50 | CTTCATAAAAATTGCACACATATAATAATGTACATA [CACACA_site2212] | 8.62 ± 0.17
51 | ATATCTCAACATATCACACATATATATATATAATAT [CACACA_site5018] | 8.05 ± 0.52
52 | AATAAATATAAATAAATAAATATATATATATATTTG [CACACA_negctrl_site1486] | 7.41 ± 0.3
53 | GTTATTAAATAATTCACACACATATATAAATAAATA [CACACA_site7129] | 7.84 ± 0.45
54 | ATAAAAATATATGAAACACACAGTTTCTATAAGAAA [CACACA_site4156] | 7.78 ± 0.15
55 | ATATGTATATAATAAGAACACACATATATTTAATTT [CACACA_site8961] | 7.54 ± 0.63
56 | TAATATACTATAAATACACACAAGTGTACATACTTC [CACACA_site983] | 7.79 ± 0.29
57 | TTAAAAAGAGGTGACACACACATATAAATCTAAATC [CACACA_site3738] | 7.58 ± 0.75
58 | TATTAAAAGGTGAGTACACACATATCTGAGTATATA [CACACA_site5192] | 7.8 ± 0.14
59 | TACAATATAATTTAATGTACATGTGAATATATATAT [XGTACX_site4675] | 8.94 ± 0.14
60 | TTGTGCTAAACAAAAAAAAATATATATAAAAAAATA [XGTACX_negctrl_site388] | 8.98 ± 0.28
61 | TAAAACTTAATGTTTTGTACATATTCTTCTTTATTT [XGTACX_site4271] | 7.36 ± 0.61
62 | AATCAAAAAGGAACCATAATATTACAACTATATATA [CACACA_negctrl_site381] | 7.48 ± 0.55
63 | ATTATTATAGATAAAACACACAATTTTGTTTTCACA [CACACA_site7792] | 7.65 ± 0.59
64 | TTAACAAAGAAACACACACACACACCCAAAAAAAAA [CACACA_site516] | 8.43 ± 0.21
65 | GCCATAAAGATATATACACACATAAAAAAAAGTTAT [CACACA_site6674] | 7.79 ± 0.59
66 | AAAAAAAAAATTAAATGTACATATATAATATATATA [XGTACX_site7245] | 8.19 ± 0.56

Row | Sequence | gcPBM binding intensity (ln)
67 | TTATATTTTATTATGTGTACGTATATAATATAATAT [XGTACX_site6230] | 8.18 ± 0.042
68 | AAACAATTATTATATTGTACATATATTACATTATTA [XGTACX_site1089] | 7.45 ± 0.52
69 | ACATGCAAGAAGAAATGTACTTAACATCTATATAGA [XGTACX_site7338] | 7.7 ± 0.53
70 | ACTAAATAAATAAATATAATATATAAATATGTATGT [TGCATGCA_negctrl_site583] | 7.47 ± 0.47
71 | GTATATATGTTTTATACACACATTAAAGGAAATATA [CACACA_site984] | 7.8 ± 0.57
72 | CACAAACAGACAAACACACACACACGGACATACATA [CACACA_site6350] | 8 ± 0.41
73 | TATAATATATAAAAATGTACACATAAATATAAGTAG [XGTACX_site665] | 8.23 ± 0.11
74 | TTTTATACATATTTTACACACTAAAATATACAGATA [CACACA_site4333] | 7.91 ± 0.59
75 | TTACATATTCATAAAAGTACATAATTATAAAAGGTA [XGTACX_site906] | 7.94 ± 0.31
76 | AAAATTAATTTATTTACACACAATATTAAAATATTT [CACACA_site7512] | 7.77 ± 0.4
77 | TATATATGGAAAAGAGTCAAAAAGAAAAAAGAAAAA [CACACA_negctrl_site1374] | 7.79 ± 0.69
78 | TATGAAATATTTATACACAGAACTTCATAATTTTCA [TGCATGCA_negctrl_site509] | 7.42 ± 0.47
79 | TTTTTGTATTCTTCTTCTTCCAGACTACATTATGTC [XGTACX_negctrl_site235] | 7.74 ± 0.66
80 | ATATATTTAAAATTGACACACATTTAATGACATTTT [CACACA_site3112] | 7.61 ± 0.61
81 | TTTTTATTTTTTGAAACACACACAAAAAAAATGATA [CACACA_site8564] | 7.93 ± 0.23
82 | TAAGGATATATATATTCACACACACCGGGAAATATA [CACACA_site8020] | 7.72 ± 0.69
83 | AAACAAATATATATATGTACTTATAAAAAAAAAAAT [XGTACX_site2211] | 7.66 ± 0.46
84 | CATTTTTTGCTTTCAACACACATACAATATATATAA [CACACA_site6127] | 8.15 ± 0.57
85 | CTTTATTTTTTATACACACACAATATGTATATATAT [CACACA_site3550] | 8.2 ± 0.54
86 | AAGGATCACGCACAAACACACATATTTATATTTATA [CACACA_site6405] | 8.13 ± 0.59
87 | ATTAAATTAAAATAATGTACTTAATACTTTTGCTTA [XGTACX_site8404] | 7.39 ± 0.39
88 | AACAATTTTTAAAGGTGTACAATATGTATATAAGAA [XGTACX_site254] | 8.54 ± 0.29
